# The campaign covered roughly 43,000 compounds. About 200 (0.47%) were called active. Another 12% or so got no clear call; they are omitted. The call rests on the fitted dose curve; in most records, active means well fitted cell-killing curve with a large enough effect; inconclusive means small, poorly fitted or top-dose-only effect, or effect the other way; inactive means flat fitted curve, though single readings scatter. Some of the results follow.
# Assay: Cell viability qHTS assay in S16 Pmp22-F2sN cells; further: nearly all actives have a fitted effect of over 65% in size
# Details: S16 Pmp22-F2sN Schwann cells (luciferase reporters placed in the Pmp22 gene) viability, CellTiter-Glo, 24 h; series mostly up to 57.5 µM; activity change, negative = cytotoxicity: at the top concentration
# Procedure, shortened: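 Rat S16 Schwann reporter line, 24 h treatment with library compounds delivered at 23 nL per well. Cell viability by CellTiter-Glo luminescence.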
# On the % scale 0 is the no-effect control and ±100 the full control effect.
row,Structure (SMILES),"activity change, negative = cytotoxicity"
1,Cc1ccc(S(=O)(=O)N2CCCc3cc(NC(=O)c4ccc(F)c(F)c4)ccc32)cc1,inactive: -29.3%
2,Cc1cc(C)c(Cn2c(=O)n(-c3ccccc3Cl)c(=O)c3c(C)c(C(=O)N(C)C)sc32)c(C)c1,inactive: 1.17%
3,Cc1cn2c(=O)cc(COc3cccc(NC(=O)c4ccccc4Cl)c3)nc2s1,inactive: 9.48%
4,COc1ccc(N2CCN(C(=O)c3ccc4c(c3)N(Cc3cc(C)ccc3C)C(=O)c3ccccc3S4=O)CC2)cc1 (stereo not drawn),inactive: 14.3%
5,COc1cccc(N2CC(NC(=O)C3CCCCC3)CC2=O)c1 (stereo not drawn),inactive: 1.91%
6,Cc1ccc(Oc2nc3c(c(=O)n(Cc4ccccc4Cl)c(=O)n3C)n2C)cc1C,inactive: -17.3%
7,COc1ccc(-c2cc3nc(C)c(CCC(=O)Nc4ccc(F)cc4F)c(C)n3n2)c(OC)c1,inactive: 13.3%
8,COc1ccc(C(=O)Nc2nnc(S(=O)(=O)N3CCN(c4ccc(C)cc4)CC3)s2)cc1,inactive: 4.37%
9,CC(Oc1ccccc1)C(=O)Nc1nnc(S(=O)(=O)N2CCCCCC2)s1 (stereo not drawn),inactive: 6.01%
10,Cc1ccccc1C(=O)Nc1cccc(-c2cn3cccnc3n2)c1,inactive: 18.1%
11,COc1ccc(CNc2nc(-c3ccco3)nn2C(=O)CC(C)C)cc1,inactive: 2.67%
12,CCCNc1ccc(-c2nc(-c3ccco3)no2)cc1[N+](=O)[O-],inactive: 12.4%
13,Cc1cc(S(=O)(=O)n2ccnc2C(C)C)cc([N+](=O)[O-])c1C,inactive: -4.93%
14,O=C(Nc1cc(C(F)(F)F)ccc1Cl)c1ccc2c(c1)CCN2S(=O)(=O)c1ccccc1,inactive: 4.6%
15,Cc1ccc(CCNC(=O)c2ccc(CNS(=O)(=O)c3ccc(C)cc3)cc2)cc1,inactive: 15.8%
16,Cc1ccc(Cl)cc1N1CCN(C(=O)c2cn(CC(C)C)c(=O)c3c2c2ccccc2n3C)CC1,inactive: -27.5%
17,CCOC(=O)c1nc(Nc2ccc(Cl)cc2)c2c(C)noc2n1,inactive: 0.0628%
18,O=C(CN1C(=O)C2CCCCN2c2ccc(C(=O)N3CCCC3)cc21)NCc1ccccc1F (stereo not drawn),inactive: -1.72%
19,CN(c1ccccc1)C(CNS(=O)(=O)c1ccccc1)c1ccccc1 (stereo not drawn),inactive: -1.22%
20,CCCCN(CC)CCNc1ncnc2onc(-c3ccc(Cl)cc3)c12,inactive: 16.9%
21,Cc1ccc(N2C(=O)CS(=O)(=O)C23C(=O)N(Cc2ccccc2F)c2ccccc23)cc1Cl (stereo not drawn),inactive: 27.5%
22,CNS(=O)(=O)c1cn(CC(=O)N2CCN(c3ccc(C)cc3C)CC2)cc1S(=O)(=O)NC,inactive: 0.956%
23,COc1ccc(Cc2nnc(C(=O)NCCCN3CCN(c4ccccc4F)CC3)o2)cc1OC,inactive: -16%
24,CC(C)COc1ccc(Nc2ncnc3ccc(Br)cc23)cc1,inactive: -4.67%

row,Structure (SMILES),"activity change, negative = cytotoxicity"
1,COC(=O)c1sccc1S(=O)(=O)N(CC(=O)NCc1ccc(F)cc1)c1ccc(C)c(C)c1,inactive: 7.63%
2,Cc1ccc(CN(Cc2ccco2)C(=O)c2cccc(C)c2)cc1,inactive: 4.65%
3,CNS(=O)(=O)c1cn(CC(=O)Nc2cccc(C(F)(F)F)c2)cc1S(=O)(=O)NC,inactive: -14.3%
4,Cc1cccc(NC(=O)NC2COc3ccccc3C2)c1C (stereo not drawn),inactive: -1.84%
5,COc1ccc(OC)c(-c2noc(N3CCN(c4cc(Cl)ccc4C)CC3)n2)c1,inactive: 4.42%
6,Cc1ccc(C)c(NC(=O)CSc2nnc(C)n3c2cc2occc23)c1,inactive: -3.51%
7,COc1cccc(C(=O)c2sc(Nc3ccc(F)c(Cl)c3)nc2N)c1,inactive: -6.78%
8,Cn1c(=O)c2sccc2n2c(CCC(=O)Nc3ccc(F)cc3)nnc12,inactive: -4.57%
9,CCC(C(=O)OC)n1nnc2sc(-c3ccccc3)cc2c1=O (stereo not drawn),inactive: -3.63%
10,CCOC(=O)c1ccc(CN(Cc2ccc(Br)cc2)S(=O)(=O)c2cccc(C(F)(F)F)c2)cc1,inactive: -0.142%
11,COc1ccc2c(c1)c(=O)c(C(=O)c1ccc(C)cc1)cn2Cc1ccccc1F,inactive: -13.1%
12,COc1ccccc1NC(=O)CN1CCN(CC(=O)Nc2ccc(F)c(F)c2)CC1,inactive: -12.6%
13,COC(=O)c1ccc(Cl)cc1NC(=O)Nc1nnc(N(C)Cc2ccccc2)s1,inactive: -3.37%
14,CC(CNC(=O)CCS(=O)(=O)c1cc2c(cc1Cl)NC(=O)CO2)c1ccccc1 (stereo not drawn),inactive: 14.7%
15,CCOC(=O)c1ccccc1NC(=O)CCc1nc(-c2ccc(C)cc2)no1,inactive: 2.98%
16,CC(Sc1oc(-c2cccs2)nc1S(=O)(=O)c1ccccc1)c1ccccc1 (stereo not drawn),inactive: 7.66%
17,Cn1nccc1C(=O)NCc1ccc2c(c1)CCN2C(=O)c1ccc(Cl)cc1,inactive: -1.01%
18,COc1ccc(C(CNC(=O)COc2cc(C)cc(C)c2)N2CCOCC2)cc1 (stereo not drawn),inactive: 9.39%
19,CCCCOc1ccc(Cn2c(=O)sc3ccccc32)cc1,inactive: -0.0367%
20,CCc1ccc(NC(=O)c2nn(-c3ccc(OC)cc3)c(=O)c3c2c2ccccc2n3C)cc1,inactive: 8.66%
21,CCc1ccc(Oc2c(C(F)(F)F)oc3c(CN4CCCC(C)C4)c(O)ccc3c2=O)cc1 (stereo not drawn),inactive: 5.37%
22,O=C(Nc1cccc(NC(=O)c2ccccc2Cl)c1)c1cccc(Br)c1,inactive: -9.96%
23,CCc1ccccc1NC(=O)C1CCCN(c2cnccn2)C1 (stereo not drawn),inactive: -5.29%
24,Cc1ccc(NC(=O)CSc2nc(=O)cc(N)n2CCc2ccccc2)cc1,inactive: -2.81%

# From PubChem BioAssay AID1508642 (National Center for Advancing Translational Sciences (NCATS), 2021)
